PubChem BioAssay AID504832 (National Center for Advancing Translational Sciences (NCATS), 2011)
About 18,000 (5.8%) of roughly 310,000 compounds were called active. The inconclusive results got no clear call from the source; some entries with a clear call stand among them for comparison. The call rests on the fitted dose curve; in most records, active means well fitted inhibition curve with a large enough effect; inconclusive means small, poorly fitted or top-dose-only effect, or another doubt; inactive means no such curve, though single readings can be large or run the other way. No potency is given beside an inconclusive call; the fits are too rough.

Experiment: Primary qHTS for delayed death inhibitors of the malarial parasite plastid, 48 hour incubation
Details: P. falciparum luciferase growth in erythrocytes; series mostly up to 28.7 µM; activity change, negative = inhibition: at the top concentration
Summary of the method: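 Read-out is firefly luciferase luminescence from an integrated reporter in P. falciparum, so falling signal marks reduced parasite growth. Infected erythrocytes were at 2% hematocrit and 0.1% parasitemia (final) in Albumax-supplemented RPMI 1640.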
On the % scale 0 is the no-effect control and ±100 the full control effect; potency means the concentration at half of the fitted maximal effect; tags describe the fitted curve by direction and shape.

Structure (SMILES) | Potency | activity change, negative = inhibition
O=C(Cc1ccc(Br)cc1)Nc1ccc(Cl)cc1 | inconclusive [inhibitor, partial curve, poor fit] | 
O=C(CCn1cnnn1)Nc1ccc(Cl)c(Cl)c1 |  | inactive: 24.3%
COc1ccc(NC(=O)CCNS(=O)(=O)c2ccc3c(c2)CC(C)N3C(=O)C2CC2)cc1 (configuration not stated) | inconclusive [inhibitor, partial curve, poor fit] | 
S=c1[nH]nc(-c2ccc3ccccc3n2)n1-c1ccccc1Cl |  | inactive: -1.41%
Nc1cc(Nc2ccccc2)ccn1 | inconclusive [inhibitor, single point] | 
COC(=O)c1ccc(/C=C2/SC(=S)N(CCCC(=O)Nc3ccc(O)cc3)C2=O)cc1 | inconclusive [inhibitor, single point] | 
Fc1ccc(COc2ccc(Br)cc2CNCc2ccncc2)cc1 | active: 8.28 µM | 
O=C(NCCc1ccccc1)c1ccc2c(c1)OCCCO2 |  | inactive: -39.8%
Cc1ccc(Nc2nnc(SCc3ccccc3)s2)cc1 |  | inactive: -9.22%
CCN(CC)c1cccc(OCC(=O)N2c3ccccc3CC2C)c1 (configuration not stated) | active: 9.28 µM | 
COc1ccc(-c2cc3nc4c(c(N5CCC6(CC5)OCCO6)n3n2)CCC4)cc1 | inconclusive [inhibitor, partial curve, poor fit] | 
Cc1cc(=O)oc2cc(OCC(=O)N3CCN(C(=O)C4COc5ccccc5O4)CC3)ccc12 (configuration not stated) | inconclusive [inhibitor, single point] | 
CN(C)CCNC(=O)c1csc(Nc2cccc3ccccc23)n1 | inconclusive [inhibitor, single point] | 
CCc1ccccc1NC(=O)CN1C(=O)C2CCCN2c2ncc(Cl)cc21 (configuration not stated) | inconclusive [inhibitor, single point] | 
Cn1c(N)c(C(=O)CSc2nnnn2-c2ccccc2)c(=O)n(C)c1=O | inconclusive [inhibitor, full curve, poor fit] | 
COc1ccccc1NC(=O)N(Cc1cccs1)Cc1cc2cc3c(cc2[nH]c1=O)OCO3 | inconclusive [inhibitor, single point] | 
CN(C)c1ccc(P(=O)(Nc2ccc([N+](=O)[O-])cc2)N2CCOCC2)c(NC(=O)c2cccs2)c1 (configuration not stated) | inconclusive [inhibitor, single point] | 
CNc1oc(-c2cccs2)nc1C#N |  | inactive: 41.2%
CC(=O)c1ccc(NC2=C(N3CCOCC3)C(=O)c3ccccc3C2=O)cc1 | active: 0.828 µM | 
COc1cccc(NC(=O)CN(C)C(=O)c2c(C)noc2C)c1 |  | inactive: 10%
Cc1cnc(C(=O)NNC(=O)c2ccc(Br)cc2)cn1 | active: 11.7 µM | 
O=C(Nc1cccc(Cl)c1)c1cc(N=Nc2ccc([N+](=O)[O-])cc2Cl)ccc1O | inconclusive [inhibitor, partial curve, poor fit] | 
O=C(OCc1c(F)cccc1Cl)c1cc([N+](=O)[O-])ccc1N1CCOCC1 | inconclusive [inhibitor, single point] | 
O=C(Cc1ccccc1)Nc1cccc(-c2nnc(-c3ccco3)o2)c1 |  | inactive: 6.3%

Structure (SMILES) | Potency | activity change, negative = inhibition
Cc1ccc(Nc2nc(COC(=O)COc3ccc(C=O)cc3)cs2)cc1 |  | inactive: 107%
COc1ccc(C(=O)Nc2nc(-c3ccc(OC)cc3)c(-c3ccc([N+](=O)[O-])cc3)s2)cc1 |  | inactive: 37.7%
Clc1ccc(-n2ncc3c(NCCN4CCOCC4)ncnc32)cc1 |  | inactive: 239%
COc1ccccc1-c1nc(-c2cccc(C)c2)no1 |  | inactive: 421%
C/C(=N/NC(=O)c1cccs1)c1ccco1 |  | inactive: 111%
CS(=O)(=O)c1ccc2nc(NC(=O)C3COc4ccccc4O3)sc2c1 (configuration not stated) |  | inactive: 23.6%
COCc1ccc(C(=O)N2CCCC(N3CCN(c4ccccc4C)CC3)C2)s1 (configuration not stated) | inconclusive [inhibitor, partial curve] | 
CC(=O)NC(Cc1ccc(F)cc1)C(=O)NC1CCN(C(=O)Nc2ccc(F)cc2)CC1 (configuration not stated) |  | inactive: -7.5%
C=C1c2ccc(C)cc2NC(=O)N1c1ccccc1 | inconclusive [inhibitor, partial curve, poor fit] | 
COc1cc(NC(=O)CN2C(=O)NC(c3ccccc3)(c3ccccc3)C2=O)cc(OC)c1 | inconclusive [inhibitor, partial curve] | 
COC(=O)c1cc(NC(=O)Cc2ccccc2[N+](=O)[O-])cc(C(=O)OC)c1 | inconclusive [inhibitor, single point] | 
Cc1c(NC(=O)c2ccc(COc3ccc4ccccc4c3)o2)c(=O)n(-c2ccccc2)n1C | inconclusive [inhibitor, single point] | 
Oc1ccc(C[C@H]2CNCCN2CCc2cc(C(F)(F)F)cc(C(F)(F)F)c2)cc1 | active: 9.28 µM | 
Cn1c2c(c(=O)n(C)c1=O)C(C(F)(F)F)(C(F)(F)F)N=C(CCC1CCCCC1)N2 | inconclusive [inhibitor, single point] | 
CCOC(=O)C1C(=O)C=C(c2ccc(NS(C)(=O)=O)cc2)CC1c1ccco1 (configuration not stated) | inconclusive [inhibitor, full curve, poor fit] | 
COc1ccccc1C(=O)NCC(=O)N/N=C/c1cc(Br)ccc1OCc1ccccc1 |  | inactive: -8.47%
O=C(N/N=C/c1ccc(Cl)cc1Cl)c1ccncc1 |  | inactive: 19.8%
CC(=O)Nc1ccc(C(=O)Nc2cccc(S(=O)(=O)NC3=NCCC3)c2)cc1 | inconclusive [inhibitor, partial curve, poor fit] | 
CN1C(=O)/C(=C\c2cc(N=Nc3ccccc3)ccc2O)SC1=S | inconclusive [inhibitor, partial curve, poor fit] | 
Cc1ccc2nc(C)c3c(c2c1)OC(C(C)(Cl)Br)C3 (configuration not stated) | active: 13.1 µM | 
COc1ccc(CCN2CC(C(=O)NCCc3ccccc3C(F)(F)F)CCC2=O)cc1 (configuration not stated) |  | inactive: -0.615%
O=C(NCCc1ccco1)c1nn(Cc2ccccc2)c(=O)c2ccccc12 | inconclusive [inhibitor, full curve, poor fit] | 
CCC(Sc1nc2ncccc2[nH]1)C(=O)NC1CCC(C)CC1 (configuration not stated) | inconclusive [inhibitor, single point] | 
